Measured values from PubChem BioAssay AID1768 (National Center for Advancing Translational Sciences (NCATS), 2009).
About 620 (0.23%) of roughly 270,000 compounds were called active. The inconclusive results got no clear call from the source; some entries with a clear call stand among them for comparison. The call rests on the fitted dose curve; in most records, active means well fitted inhibition curve with a large enough effect in the polarisation, with a control signal flat (not every such curve was filed as active); inconclusive means small, poorly fitted or top-dose-only effect, or effect the other way, or a change in a side signal; inactive means no such curve, though single readings can be large or run the other way; the % refers to the polarisation. A potency beside an inconclusive call is a rough fit, not a confirmed value. “Side channel” marks fits to a control or component signal instead of the main read-out.

Target: Menin (Homo sapiens) (UniProt O00255)
Chain of UniProt O00255 (O00255 whole entry, looked up): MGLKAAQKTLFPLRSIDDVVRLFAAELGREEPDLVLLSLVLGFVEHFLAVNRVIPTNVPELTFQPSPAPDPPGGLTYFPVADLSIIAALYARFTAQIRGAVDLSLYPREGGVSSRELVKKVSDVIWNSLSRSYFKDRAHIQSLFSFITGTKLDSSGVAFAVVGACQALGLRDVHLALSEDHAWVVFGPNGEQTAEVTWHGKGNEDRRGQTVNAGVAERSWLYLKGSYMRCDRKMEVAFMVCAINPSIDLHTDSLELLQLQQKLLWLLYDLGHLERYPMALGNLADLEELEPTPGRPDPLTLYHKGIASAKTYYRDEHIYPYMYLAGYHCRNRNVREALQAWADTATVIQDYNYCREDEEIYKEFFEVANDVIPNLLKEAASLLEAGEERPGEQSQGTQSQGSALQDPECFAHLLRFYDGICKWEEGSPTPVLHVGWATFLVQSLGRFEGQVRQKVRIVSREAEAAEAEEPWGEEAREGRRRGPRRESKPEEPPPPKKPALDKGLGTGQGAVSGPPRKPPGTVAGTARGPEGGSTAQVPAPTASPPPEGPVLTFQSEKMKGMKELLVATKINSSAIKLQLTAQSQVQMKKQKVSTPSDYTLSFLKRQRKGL
Test: qHTS Assay for Inhibitors Targeting the Menin-MLL Interaction in MLL Related Leukemias: Competition With Texas Red Labeled MLL-derived Mutant Peptide; on FP activity change, negative = inhibition: % of control where 0% means no effect
Settings: fluorescence polarization; FP activity change, negative = inhibition: at 61.6 µM (top of the series)
Potency means the concentration at half of the fitted maximal effect; tags describe the fitted curve by direction and shape or compound fluorescence and quenching.

Row | Structure (SMILES) | Potency | FP activity change, negative = inhibition
1 | Nc1c(C(=O)NC2CCCCC2)c2nc3ccccc3nc2n1/N=C/c1ccco1 | inconclusive: 20 µM [quencher, side channel, single point] | 
2 | CC(C)N(C(C)C)S(=O)(=O)c1ccc(N2CCc3ccccc3C2)nc1 | inconclusive: 11.2 µM [fluorescent, side channel, partial curve] | 
3 | CSc1ccc(C(c2c(C(=O)O)[nH]c3ccccc23)c2c(C(=O)O)[nH]c3ccccc23)cc1 | inconclusive: 28.2 µM [quencher, side channel, partial curve] | 
4 | CN(C)c1ccc(/C=N/NC(=O)CCCO)cc1 |  | inactive: 3.72%
5 | N#C/C(=C/c1cccs1)c1nc2ccccc2[nH]1 | inconclusive: 39.8 µM [quencher, side channel, single point] | 
6 | O=C(COc1ccccc1)NCc1ccc(-n2cccc2)cc1 | inconclusive: 39.8 µM [fluorescent, side channel, single point] | 
7 | COc1ccc(/C=N/NS(=O)(=O)c2ccc(C)cc2)cc1OC(=O)c1ccccc1 | inconclusive: 25.1 µM [quencher, side channel, partial curve] | 
8 | COc1ccc(CCn2c(-c3ccc(C(C)(C)C)cc3)n[nH]c2=S)cc1OC | inconclusive: 28.2 µM [fluorescent, side channel, partial curve] | 
9 | CCC1(CC)C(=O)C2=C3C1[C@H](C(=O)OC)CC(C(=O)OC)C[C@H]3[C@H]1C(=O)N(C)C(=O)[C@H]1[C@H]2C (stereo partly specified) |  | inactive: -8.51%
10 | CC(C)(C)c1ccc(C(=O)c2c[nH]c(C(=O)NCCc3ccccn3)c2)cc1 | inconclusive: 31.6 µM [fluorescent, side channel, single point] | 
11 | C=CCN(CC=C)C(=O)c1ccc(OC2CCN(S(=O)(=O)N(C)C)CC2)cc1 | inconclusive: 3.16 µM [fluorescent, side channel, full curve] | 
12 | CCn1c(=S)sc2c(=O)n(CC(=O)Nc3ccc(C(C)=O)cc3)c(C)nc21 | inconclusive: 25.1 µM [quencher, side channel, single point] | 
13 | O=C(Nc1nnc(SCc2ccccc2Cl)s1)c1cccc([N+](=O)[O-])c1 | inconclusive: 25.1 µM [quencher, side channel, single point] | 
14 | C/C=C/c1ccc(OCC(O)CN(C)Cc2ccc(SC)cc2)c(OC)c1 (stereo unspecified) | inconclusive: 11.2 µM [fluorescent, side channel, partial curve] | 
15 | COc1cccc(Nc2ncc3nc(CCc4ccccc4)c(=O)n(Cc4cccs4)c3n2)c1 | inconclusive: 31.6 µM [inhibitor, single point] | 
16 | CCOC(=O)C1(Cc2cccc(OC)c2)CCN(Cc2cccc(O)c2)CC1 | inconclusive: 10 µM [inhibitor, partial curve, poor fit] | 
17 | CN(C)S(=O)(=O)c1cccc(NC(=O)c2ccncc2)c1 | inconclusive: 28.2 µM [inhibitor, single point] | 
18 | C=CCc1cccc(/C=N/NC(=O)C(C)Nc2ccc(C)cc2)c1O (stereo unspecified) | inconclusive: 20 µM [quencher, side channel, partial curve, poor fit] | 

Row | Structure (SMILES) | Potency | FP activity change, negative = inhibition
19 | Cc1nc2ccccc2c(=O)n1/N=C/c1ccc(O)c(O)c1O | inconclusive: 14.1 µM [quencher, side channel, partial curve] | 
20 | Cc1ccc(-c2cc(C(=O)Nc3ccc(S(=O)(=O)Nc4ncccn4)cc3)c3ccccc3n2)cc1 | inconclusive: 15.8 µM [quencher, side channel, partial curve] | 
21 | COc1ccc(C2CC(c3ccccc3)Oc3cc(OC)ccc32)cc1 (stereo unspecified) | inactive | 
22 | Cc1ccc(C)c(NC(=O)CCN2C(=O)c3ccccc3C2=O)c1 | inconclusive: 35.5 µM [fluorescent, side channel, single point] | 
23 | CCN1CCN(CCCNC(=O)CNC(=O)c2nn(-c3ccc(OC)cc3OC)c(=O)c3ccccc23)CC1 | inconclusive: 31.6 µM [inhibitor, partial curve] | 
24 | CC1CCN(C(=O)/C(=C/c2ccccc2Cl)c2ccccc2)CC1 | inconclusive: 2.51 µM [fluorescent, side channel, full curve, poor fit] | 
25 | COc1ccc(-c2c(-c3ccccc3OC)sc3ccccc23)cc1OC |  | inactive: 14.8%
26 | CN(C)C(=O)c1ccc(-c2nc(Nc3ccncc3)c3ccccc3n2)cc1 | inconclusive: 39.8 µM [inhibitor, partial curve] | 
27 | O=S(=O)(N/N=C\c1cn(-c2ccccc2)nc1-c1ccccc1)c1ccccc1 | inconclusive: 12.6 µM [quencher, side channel, partial curve] | 
28 | COc1cc(-c2cc(C(=O)NCc3ccco3)c3ccccc3n2)cc(OC)c1OC |  | inactive: -1.33%
29 | NC(=O)NC(CC(=O)NCc1ccc2c(c1)OCO2)c1ccccc1Cl (stereo unspecified) | inconclusive: 3.55 µM [inhibitor, partial curve] | 
30 | O=C(COc1ccc(Br)cc1)Nc1ccc(C(=O)Nc2ccccc2C(=O)O)cc1 | inconclusive: 8.91 µM [quencher, side channel, partial curve] | 
31 | CCC1CCCCN1CCCNC(=O)c1c(O)nc2c(C)cccn2c1=O (stereo unspecified) |  | inactive: -11%
32 | Cc1ccc(C(c2c(C)[nH][nH]c2=O)c2c(C)[nH][nH]c2=O)cc1 | inconclusive: 39.8 µM [quencher, side channel, single point] | 
33 | C=CCOc1ccc(/C=C\c2nc(O)c([N+](=O)[O-])c(=O)[nH]2)cc1OCC | inconclusive: 15.8 µM [quencher, side channel, partial curve] | 
34 | Cc1ccc(NC(=O)c2cccc(Oc3ccc([N+](=O)[O-])cc3)c2)c(C(=O)O)c1 | inconclusive: 35.5 µM [quencher, side channel, single point] | 
35 | Cc1ccc(NC(=O)c2sc(=S)n(-c3cc(C)ccc3F)c2N)cc1 | inconclusive: 22.4 µM [quencher, side channel, partial curve] | 
36 | C/C(=N\NC(=O)CCc1ccccc1)C1C(=O)c2ccccc2C1=O | inconclusive: 39.8 µM [quencher, side channel, single point] | 
